From the supplement of paper PMC9151546
Single values are uncertain, as repeats are few or missing.

What was measured:
CHO-K1 [1] = experiment: hypodiploid nuclei frequency (% of nucleated events); higher = more hypodiploid events (aneugenic)
Protocol: (§1)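 Flow-cytometric in vitro micronucleus assay (Litron MicroFlow) in CHO-K1 cells in 96-well plates, 19 concentrations (4.5-200 µM, n=1 per concentration). Without S9, cells were exposed for 24 h and sampled at 48 h. With Aroclor 1254-induced rat liver S9, cells were exposed for 3-4 h and sampled at 27-28 h. Read-outs are %MN and %hypodiploid nuclei relative to nucleated events, and relative survival as the nuclei-to-bead ratio versus the 1% DMSO vehicle control (x100).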

CHO-K1 [2] = experiment: relative survival (nuclei to bead ratio vs DMSO control) (% of vehicle control); higher = more surviving cells
Protocol: as §1

CHO-K1 [3] = experiment: micronucleus frequency (% of nucleated events); higher = more micronuclei (genotoxic)
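Wherever hypodiploid nuclei frequency (% of nucleated events) is given: hypodiploid nuclei gated on a flow cytometer with 488 nm excitation after SYTOX Green staining, cultures at 37 °C, positive controls vinblastine without S9 and cyclophosphamide with S9.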
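Wherever micronucleus frequency (% of nucleated events) is given: cells lysed with nuclei stained by SYTOX Green, then micronucleus-gated events counted against nucleated events by flow cytometry with 488 nm excitation.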
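Wherever relative survival (nuclei to bead ratio vs DMSO control) is given: Lysed-cell nuclei stained with SYTOX Green and counted against counting beads by flow cytometry at 488 nm excitation, with vinblastine (no S9) and cyclophosphamide (plus S9) as positive controls.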

CC(C)(c1ccccc1)c1ccc(O)cc1 [4-Cumylphenol]
Details | hypodiploid nuclei frequency, CHO-K1 [1] [%] | micronucleus frequency, CHO-K1 [3] [%] | relative survival, CHO-K1 [2]
concentration: 4.5 (µM), S9 metabolic activation: with S9, exposure time: 3-4 hours | 0.28 | 1.38 | 90.8
concentration: 4.5 (µM), S9 metabolic activation: without S9, exposure time: 24 hours | 0.72 | 1 | 107
concentration: 5.63 (µM), S9 metabolic activation: with S9, exposure time: 3-4 hours | 0.24 | 0.84 | 108
concentration: 5.63 (µM), S9 metabolic activation: without S9, exposure time: 24 hours | 0.6 | 0.88 | 119
concentration: 7.04 (µM), S9 metabolic activation: with S9, exposure time: 3-4 hours | 0.12 | 1.18 | 107
concentration: 7.04 (µM), S9 metabolic activation: without S9, exposure time: 24 hours | 0.74 | 1.22 | 99.6
concentration: 8.8 (µM), S9 metabolic activation: with S9, exposure time: 3-4 hours | 0.24 | 1.46 | 91
concentration: 8.8 (µM), S9 metabolic activation: without S9, exposure time: 24 hours | 0.4 | 1.3 | 110
concentration: 11 (µM), S9 metabolic activation: with S9, exposure time: 3-4 hours | 0.12 | 1.1 | 90.8
concentration: 11 (µM), S9 metabolic activation: without S9, exposure time: 24 hours | 0.74 | 1.28 | 126
concentration: 13.7 (µM), S9 metabolic activation: with S9, exposure time: 3-4 hours | 0.22 | 1.02 | 93.3
concentration: 13.7 (µM), S9 metabolic activation: without S9, exposure time: 24 hours | 0.6 | 1.68 | 106
concentration: 17.2 (µM), S9 metabolic activation: with S9, exposure time: 3-4 hours | 0.18 | 1.76 | 79.7
concentration: 17.2 (µM), S9 metabolic activation: without S9, exposure time: 24 hours | 0.62 | 1.8 | 114
concentration: 21.5 (µM), S9 metabolic activation: with S9, exposure time: 3-4 hours | 0.18 | 1.36 | 77
concentration: 21.5 (µM), S9 metabolic activation: without S9, exposure time: 24 hours | 0.58 | 1.18 | 99.6
concentration: 26.8 (µM), S9 metabolic activation: with S9, exposure time: 3-4 hours | 0.46 | 2.52 | 89.9
concentration: 26.8 (µM), S9 metabolic activation: without S9, exposure time: 24 hours | 1.18 | 2.26 | 84.6
concentration: 33.6 (µM), S9 metabolic activation: with S9, exposure time: 3-4 hours | 0.23 | 0.94 | 69.4
concentration: 33.6 (µM), S9 metabolic activation: without S9, exposure time: 24 hours | 0.88 | 3.04 | 73
concentration: 41.9 (µM), S9 metabolic activation: with S9, exposure time: 3-4 hours | 0.1 | 1.01 | 53.5
concentration: 41.9 (µM), S9 metabolic activation: without S9, exposure time: 24 hours | 0.72 | 2.04 | 59.7
concentration: 52.4 (µM), S9 metabolic activation: with S9, exposure time: 3-4 hours | 0.14 | 1.15 | 45
concentration: 52.4 (µM), S9 metabolic activation: without S9, exposure time: 24 hours | 1.6 | 2.94 | 74.6
concentration: 65.5 (µM), S9 metabolic activation: with S9, exposure time: 3-4 hours | 0.29 | 1.06 | 40.2
concentration: 65.5 (µM), S9 metabolic activation: without S9, exposure time: 24 hours | 1.28 | 1.62 | 55.1
concentration: 81.9 (µM), S9 metabolic activation: with S9, exposure time: 3-4 hours | 0.1 | 0.57 | 50
concentration: 81.9 (µM), S9 metabolic activation: without S9, exposure time: 24 hours | 3.12 | 4.48 | 61
concentration: 102 (µM), S9 metabolic activation: with S9, exposure time: 3-4 hours | – | – | 37.5
concentration: 102 (µM), S9 metabolic activation: without S9, exposure time: 24 hours | 6.4 | 5.48 | 51.1
concentration: 128 (µM), S9 metabolic activation: with S9, exposure time: 3-4 hours | 0.08 | 2.68 | 50.1
concentration: 128 (µM), S9 metabolic activation: without S9, exposure time: 24 hours | 10.2 | 9.72 | 42
concentration: 160 (µM), S9 metabolic activation: with S9, exposure time: 3-4 hours | 0.31 | 6.25 | 41.5
concentration: 160 (µM), S9 metabolic activation: without S9, exposure time: 24 hours | – | – | 23.4
concentration: 200 (µM), S9 metabolic activation: without S9, exposure time: 24 hours | – | – | 1.44

c1ccc2c(c1)oc1ccccc12 [Dibenzofuran]
Details | hypodiploid nuclei frequency, CHO-K1 [1] [%] | micronucleus frequency, CHO-K1 [3] [%] | relative survival, CHO-K1 [2]
concentration: 4.5 (µM), S9 metabolic activation: with S9, exposure time: 3-4 hours | 0.15 | 1.54 | 101
concentration: 4.5 (µM), S9 metabolic activation: without S9, exposure time: 24 hours | 0.56 | 1.7 | 97.4
concentration: 5.63 (µM), S9 metabolic activation: with S9, exposure time: 3-4 hours | 0.24 | 1.73 | 108
concentration: 5.63 (µM), S9 metabolic activation: without S9, exposure time: 24 hours | 0.38 | 1.9 | 137
concentration: 7.04 (µM), S9 metabolic activation: with S9, exposure time: 3-4 hours | 0.24 | 1.37 | 114
concentration: 7.04 (µM), S9 metabolic activation: without S9, exposure time: 24 hours | 0.82 | 1.68 | 99.6
concentration: 8.8 (µM), S9 metabolic activation: with S9, exposure time: 3-4 hours | 0.33 | 1.55 | 111
concentration: 8.8 (µM), S9 metabolic activation: without S9, exposure time: 24 hours | 0.7 | 1.86 | 149
concentration: 11 (µM), S9 metabolic activation: with S9, exposure time: 3-4 hours | 0.26 | 1.31 | 110
concentration: 11 (µM), S9 metabolic activation: without S9, exposure time: 24 hours | 0.44 | 2.08 | 138
concentration: 13.7 (µM), S9 metabolic activation: with S9, exposure time: 3-4 hours | 0.23 | 1.3 | 117.8
concentration: 13.7 (µM), S9 metabolic activation: without S9, exposure time: 24 hours | 0.38 | 1.7 | 155
concentration: 17.2 (µM), S9 metabolic activation: with S9, exposure time: 3-4 hours | 0.19 | 1.49 | 114
concentration: 17.2 (µM), S9 metabolic activation: without S9, exposure time: 24 hours | 0.56 | 2.06 | 127
concentration: 21.5 (µM), S9 metabolic activation: with S9, exposure time: 3-4 hours | 0.26 | 1.32 | 103
concentration: 21.5 (µM), S9 metabolic activation: without S9, exposure time: 24 hours | 0.52 | 1.94 | 119
concentration: 26.8 (µM), S9 metabolic activation: with S9, exposure time: 3-4 hours | 0.25 | 1.86 | 122
concentration: 26.8 (µM), S9 metabolic activation: without S9, exposure time: 24 hours | 0.92 | 2.56 | 102
concentration: 33.6 (µM), S9 metabolic activation: with S9, exposure time: 3-4 hours | 0.17 | 1.43 | 94.8
concentration: 33.6 (µM), S9 metabolic activation: without S9, exposure time: 24 hours | 0.62 | 2.08 | 130
concentration: 41.9 (µM), S9 metabolic activation: with S9, exposure time: 3-4 hours | 0.26 | 1.69 | 99.09
concentration: 41.9 (µM), S9 metabolic activation: without S9, exposure time: 24 hours | 0.78 | 2.46 | 131
concentration: 52.4 (µM), S9 metabolic activation: with S9, exposure time: 3-4 hours | 0.19 | 2.18 | 106
concentration: 52.4 (µM), S9 metabolic activation: without S9, exposure time: 24 hours | 0.96 | 2.42 | 129
concentration: 65.5 (µM), S9 metabolic activation: with S9, exposure time: 3-4 hours | 0.23 | 1.83 | 99.27
concentration: 65.5 (µM), S9 metabolic activation: without S9, exposure time: 24 hours | 0.76 | 2.08 | 136
concentration: 81.9 (µM), S9 metabolic activation: with S9, exposure time: 3-4 hours | 0.27 | 2.05 | 83.4
concentration: 81.9 (µM), S9 metabolic activation: without S9, exposure time: 24 hours | 0.74 | 3.32 | 137
concentration: 102 (µM), S9 metabolic activation: with S9, exposure time: 3-4 hours | 0.44 | 2.37 | 106
concentration: 102 (µM), S9 metabolic activation: without S9, exposure time: 24 hours | 0.84 | 3.18 | 135
concentration: 128 (µM), S9 metabolic activation: with S9, exposure time: 3-4 hours | 0.31 | 2.14 | 101
concentration: 128 (µM), S9 metabolic activation: without S9, exposure time: 24 hours | 1.02 | 3 | 133
concentration: 160 (µM), S9 metabolic activation: with S9, exposure time: 3-4 hours | 0.27 | 3.03 | 86.7
concentration: 160 (µM), S9 metabolic activation: without S9, exposure time: 24 hours | 1.08 | 3.26 | 129
concentration: 200 (µM), S9 metabolic activation: with S9, exposure time: 3-4 hours | 0.48 | 3.01 | 87.9
concentration: 200 (µM), S9 metabolic activation: without S9, exposure time: 24 hours | 1.02 | 3.3 | 121
